Measured values from the GPR68 mutational scans of Howard et al. (2025).
Scores with a large standard error are left out. Two further conditions of the source, in which the scores hardly spread, are not listed. Read del as a deletion of the residues named and ins as an insertion between two positions. For part of these data: The concentration of ogerin is not given here.

B1: GPR68, Q15743 (parent)
chain: MGNITADNSSMSCTIDHTIHQTLAPVVYVTVLVVGFPANCLSLYFGYLQIKARNELGVYLCNLTVADLFYICSLPFWLQYVLQHDNWSHGDLSCQVCGILLYENIYISVGFLCCISVDRYLAVAHPFRFHQFRTLKAAVGVSVVIWAKELLTSIYFLMHEEVIEDENQHRVCFEHYPIQAWQRAINYYRFLVGFLFPICLLLASYQGILRAVRRSHGTQKSRKDQIQRLVLSTVVIFLACFLPYHVLLLVRSVWEASCDFAKGVFNAYHFSLLLTSFNCVADPVLYCFVSETTHRDLARLRGACLAFLTCSRTGRAREAYPLGAPEASGKSGAQGEEPELLTKLHPAFQTPNSPGSGGFPTGRLA

Columns and labels:
[1] = variants of: B1; experiment: cAMP reporter score (Enrich2 score, wild type = 0); higher = more signal; HEK293T, FACS bins
[2] = variants of: B1; experiment: surface expression score (Enrich2 score, wild type = 0); higher = more signal; HEK293T, FACS bins

Variant	cAMP reporter score ([1]; pH 5.5)	cAMP reporter score ([1]; pH 6)	cAMP reporter score ([1]; pH 6.5, modulator: ogerin)	surface expression score [2]	cAMP reporter score ([1]; pH 6, modulator: ogerin)
S42Y	-2.08	-2.16	-1.01	-2.94	–
S42G	-0.443	-0.094	-0.907	2.65	-0.919
S42C	0.236	-0.941	-0.344	1.7	-0.037
S42V	0.78	0.008	0.157	2.37	0.453
S42Q	-0.449	-0.59	–	-0.391	-0.692
Y28_V29insGS	-0.936	–	-0.425	-1.89	-1.43
F36del	-1.25	-0.585	-0.891	-3.09	-2.05
Y28_T30del	-1.4	-0.791	-1.22	-2.26	-1.8
L32_V33insGS	-1.33	-1.02	-0.675	-2.59	-1.46
L41_S42del	-2.21	-0.39	-1.07	-1.4	-1.51
G35del	-1.25	-0.936	-0.955	-2.59	-1.71
V33_V34insG	-1.73	-1.19	-1.41	-1.99	-1.38
T30_V31del	-1.19	-0.829	-0.581	-2.45	-2.08
Y44_G46del	-1.35	-0.828	-1.39	-2.46	-1.22
F36_P37insGS	-1.19	0.063	-0.22	-2.51	-1.41
V34del	-1.76	0.656	1.28	-2.48	-0.637
P37_A38del	-1.35	-0.735	-1.09	-2.25	-1.41
V29_V31del	-1.73	-1.59	-0.772	-2.11	-2.4
G35_F36insGSG	-1.33	-0.808	-0.667	-2.78	-1.04
Y28del	-1.12	-0.769	-0.031	-2.57	–
Y44_F45insGSG	-1.51	-1.02	-1.31	-2.8	-1.45

Variant	cAMP reporter score ([1]; pH 5.5)	cAMP reporter score ([1]; pH 6)	cAMP reporter score ([1]; pH 6.5, modulator: ogerin)	surface expression score [2]	cAMP reporter score ([1]; pH 6, modulator: ogerin)
L43_Y44del	-2.05	–	-1.32	-2.12	–
N39_C40insGSG	-0.489	-0.597	-1.22	-2.69	-1.9
Y28M	-1.26	-0.444	-0.675	0.788	-1.03
Y28P	-1.4	-0.955	-0.568	-2.1	-1.49
Y28V	-1.44	0.4	-0.044	-0.602	-1.92
Y28K	-0.545	-1.13	-0.625	-1.79	-1.09
Y28H	-1.43	-0.729	-1.29	-0.996	-1.51
Y28W	0.846	-0.233	-0.545	1.62	0.384
Y28L	-0.668	-0.031	-0.286	1.74	-1.6
Y28N	-0.809	-1.53	-1.3	-2.27	-0.721
Y28I	-1.1	-0.875	-0.733	1.1	-1.05
Y28Q	-0.95	–	-1.6	-1.88	-2.07
Y28R	-0.674	0.268	0.734	-1.72	-0.508
Y28T	-2.56	–	–	-1.17	–
Y28S	-1.75	-1.91	-1.39	–	-1.38
A38del	-0.75	0	-0.64	-2.23	-1.05
G46D	-0.301	-1.63	-0.784	-2.41	-1.87
G46C	-0.324	-2.08	-0.813	-0.484	-0.883
G46A	0.609	0.846	-0.033	1.41	0.216
Y28_V29insG	-1.64	-0.961	-1.24	-2.58	-2.48
C40_L41insGS	-1.93	-1.51	-0.868	-3.34	–

Variant	cAMP reporter score ([1]; pH 5.5)	cAMP reporter score ([1]; pH 6)	cAMP reporter score ([1]; pH 6.5, modulator: ogerin)	surface expression score [2]	cAMP reporter score ([1]; pH 6, modulator: ogerin)
V31P	-1.54	–	-1.11	-1.81	-1.65
V31T	-0.914	-1.09	-1	-2.41	-0.95
V31E	-1.6	-0.823	-0.781	-2.33	-0.597
V31N	-1.11	-1.85	–	–	-1.67
V31H	-0.813	-0.506	-1.75	-0.991	–
V31L	-0.934	-0.629	-0.992	1.49	-1.16
V31I	-1.14	-1.01	-1.35	-0.333	-1.06
V31C	0.75	-0.186	-0.116	–	-0.257
V31K	-0.756	-1.07	-0.826	-1.92	-1.39
V31W	-2.34	-1.56	-1.24	-2.56	-1.58
V31Y	-1.59	-0.819	-1.85	-2.16	-2.39
V31D	-0.913	-1.42	-1.05	-2.07	-1.88
V31G	-0.968	–	-2.15	-2.62	-2.82
V31M	-0.588	0.184	-0.252	-1.59	-0.291
V31F	-1.99	-1	-1.01	-1.82	-1.26
V31Q	-1.48	-0.779	-0.967	-1.89	-1.83
V31R	-1.52	-1.22	-1.27	-2.6	-1.49
V31A	0.266	-0.072	0.025	-1.49	-0.145
V31S	-1.45	0.095	-1.19	-2.74	-1.74
L43_Y44insGS	-0.378	-0.521	-0.207	-2.67	-0.304
S42_Y44del	-1.39	-1.33	-1.48	-2.63	-1.77
